Measurements published in PubChem BioAssay AID1362 (SRMLSC, 2008).
The other results are listed elsewhere or left out. Shown are side measurements of this screen, not its main read-out; they come without a call. The list favours compounds with an active or inconclusive main result.

Assay: growth inhibition of WT strain, primary screen, mitochondrial fusion inhibitor project, WT and mutant strains, chemical genetic (AID 1362); also: tested in S. cerevisiae
Settings: mitochondrial fusion phenotypic screen, at 10 µM

Row | SMILES | inhibition [%]
1 | CCc1ccccc1NC(=S)N=Nc1c(O)n(C)c2ccc(S(=O)(=O)N3CCOCC3)cc12 | 19.4
2 | CCCSc1ccc2nc(-c3ccccc3)cn2c1 | 60.6
3 | Cc1ccc(-c2cc3ccccc3nc2N2CCOCC2)cc1 | 54.3
4 | Cc1cc(C)c2sc(N(CCCN(C)C)C(=O)c3ccc(Br)s3)nc2c1 | 93.9
5 | N#Cc1c(NC(NC(=O)c2ccco2)C(=O)c2ccccc2)sc2c1CCCC2 (stereo not drawn) | 31.1
6 | Cc1ccc2nc(-c3ccc(NC(=O)CNC4CC4)cc3)sc2c1 | 33.4
7 | O=c1cc2c(nn1Cc1ccccc1Cl)-c1ccccc1CC2 | 28.6
8 | Cc1ccc(C(C)C)cc1OCC(=O)N/N=C/c1ccc2c(c1)OCCO2 | -1.75
9 | Nc1nc(-c2ccccc2)c(N=Nc2cccc3ccccc23)s1 | 76.6
10 | CN(C)CC(C(=O)c1ccccc1)c1ccccc1 (stereo not drawn) | 75.8
11 | O=C(COc1ccc(Cl)cc1Cl)NNC(=S)Nc1ccc(F)cc1 | 51.7
12 | CCc1ccc(OCc2n[nH]c(=S)n2C(C)CCCC(C)C)cc1 (stereo not drawn) | 20.4
13 | COc1ccccc1N1CCN(c2ncnc3c2oc2ccccc23)CC1 | 56.7
14 | COc1ccccc1NC(=S)N(Cc1ccccn1)Cc1ccccc1Cl | 23.4
15 | O=C(O)c1cc(-c2ccc(/C=N/Nc3ccc(Cl)cc3)o2)ccc1Cl | 57.6
16 | CCC(C)NC(=S)N1CCN(C(c2ccccc2)c2ccccc2)CC1 (stereo not drawn) | 37.9
17 | N=c1c2c(n(Cc3ccc([N+](=O)[O-])cc3)c3c1CCC3)CCCC2 | 57.3
18 | CCOC(=O)c1sc2nc(CSc3ccccc3)nc(N3CCC(C(N)=O)CC3)c2c1C | -4.15
19 | CN1CCN(Cc2ccc(Sc3ccc(Cl)cc3)c([N+](=O)[O-])c2)CC1 | 81.5
20 | CC(=O)N(C)c1ccc(OCC(O)Cn2c3ccc(Cl)cc3c3cc(Cl)ccc32)cc1 (stereo not drawn) | -27.4
21 | CN(CC(=O)Nc1ccc(Cl)c(Cl)c1)C(=O)C12CC3CC(CC(C3)C1)C2 | 57
22 | c1ccc(-c2nc(N3CCCCC3)nc3ccccc23)cc1 | -13.6
23 | Cc1c(C(=O)NCc2ccc3c(c2)OCO3)oc2ccc(Br)cc12 | 25.6
24 | CC(C)(C)CC(C)(C)NC(=O)Nc1cccc([N+](=O)[O-])c1 | 12.3
25 | CSc1ccc(Cl)c(C(=O)NCCOc2cc(C(C)C)ccc2C)c1 | 23
26 | CC1CC2=C(NC(=S)NC2c2ccccc2F)/C(=C/c2ccccc2F)C1 (stereo not drawn) | 48.5
27 | CCOc1ccc(C(C(=O)NC2CCCC2)N(Cc2ccccc2)C(=O)c2nsc(Cl)c2Cl)cc1 (stereo not drawn) | 3.08

Row | SMILES | inhibition [%]
28 | CCC(C)c1ccc(OCCn2ccnc2)cc1 (stereo not drawn) | 65.9
29 | COc1ccccc1CCN1C(=S)NC(C)(C)CC1(C)O (stereo not drawn) | 61.7
30 | Cc1ccc(C(C)(C)C)c(OCCCn2ccnc2)c1 | 64.4
31 | C(=C\c1ccccc1)/CN1CCN(C(c2ccccc2)c2ccccc2)CC1 | 61.6
32 | CCCN1C(=O)/C(=C/c2ccc(N3CCCC3)c(C)c2)NC1=S | 50.1
33 | C=C(C)COc1ccc(-c2[nH]ncc2-c2ccc(Br)cc2)c(O)c1 | 91.1
34 | CCCCSCCCNC(=S)Nc1ccccc1C | 68.5
35 | CCOC(=O)N1CCN(CC(O)COCCC23CC4CC(CC(C4)C2)C3)CC1 (stereo not drawn) | 55.1
36 | CC1CCC(C(C)C)C(OCC(O)CNC(C)c2ccccc2)C1 (stereo not drawn) | 18
37 | CCOc1ccc(C(=O)N/N=C(\c2ccccc2)c2ccccn2)cc1 | 47
38 | CCOC(=O)c1c(C)[nH]c(N=Nc2ccccc2C)c1C | 71.7
39 | Cc1nnc(SCC(=O)Nc2cc(-c3cc(C)c(C)cc3C)nn2-c2ccccc2)s1 | 31.8
40 | CCC(NS(=O)(=O)c1c(C)[nH]c(=O)[nH]c1=O)C12CC3CC(CC(C3)C1)C2 (stereo not drawn) | 6.44
41 | Cc1ccc(/C=C/C2=NN(Cc3ccccc3Cl)C(=O)CC2)cc1 | 30
42 | C(=N\Nc1nc2ccccc2[nH]1)/c1ccccn1 | 61.4
43 | Cc1c2c(nc3ccccc13)CCC(C(C)(C)C)C2 (stereo not drawn) | 40.4
44 | CCOC(=O)C1=NN(c2cccc(C)c2)C2(S1)SC(C(C)=O)=C(C)N2c1ccccc1 (stereo not drawn) | 23.8
45 | COc1ccc(-c2csc(Nc3ncccc3C)n2)cc1 | 72.3
46 | O=C(Nc1ccc(C(F)(F)F)cc1)c1cc(S(=O)(=O)NCC2COc3ccccc3O2)ccc1F (stereo not drawn) | 26.2
47 | CN1CCN(CCCN2c3ccccc3Sc3ccc(C(F)(F)F)cc32)CC1 | 92.1
48 | CCCN1CCN(c2ncnc3scc(C4COc5ccccc5O4)c23)CC1 (stereo not drawn) | 31.5
49 | CCc1ccc(NC(=O)CSc2nc3ccccc3c(=O)n2CCCN2CCC(C)CC2)cc1 | 62.4
50 | COc1ccc(Cn2c(O)c(C=Nc3ccc(O)cc3)c3ccccc3c2=O)cc1 | 16.6
51 | CCOC(=O)CC(=O)CSc1nc(-c2cccnc2)cc(C)c1C#N | 4.46
52 | CC1CC(N(C(=O)c2ccccc2Cl)c2ccccc2)c2ccccc2N1 (stereo not drawn) | 36.8
53 | Cc1cccc(C)c1N1CCN(c2ccc3nnc(C(F)(F)F)n3n2)CC1 | 54.3
